Results published in PubChem BioAssay AID1347417 (National Center for Advancing Translational Sciences (NCATS), 2020).
Out of some 120,000 compounds screened, about 5,300 (4.4%) were called active. Inconclusive means that the source gave no clear call. Such entries were picked first, then a sample of the others. Calls come from the whole dose curve; as a rule, active = well fitted inhibition curve with a large enough effect; inconclusive = small, poorly fitted or top-dose-only effect; inactive = no such curve, though single readings can be large or run the other way. Potencies of inconclusive entries are doubtful fits and often do not repeat.

Test: qHTS Primary assay for Inhibitors of Plasmodium falciparum Dd2 growth in vitro; note: nearly all actives have a fitted effect of over 65% in size;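 for activity, negative = inhibition: plate controls were DMSO vehicle for no effect and reference drug for full effect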
Settings: P. falciparum Dd2 growth, SYBR Green, 72 h; activity, negative = inhibition: at 28.9 µM (top of the series) unless noted; series mostly up to 28.9 µM
Procedure, shortened: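 Infected erythrocytes (Dd2, 0.3% parasitemia, 2.5% hematocrit final) are added to compound in RPMI-1640/Albumax II medium, grown 72 h at 37C in low oxygen, then lysed with saponin/Triton-X containing SYBR Green and read by fluorescence.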
Potency is the fitted concentration of half-maximal effect; tags give direction and shape of the fitted curve.

Structure (SMILES)	Potency	activity, negative = inhibition	outcome
Cc1ccc(C)c(NC(=O)N2CC=C(c3c[nH]c4ccccc34)CC2)c1	active: 3.98 µM	–	–
Cc1ccc(-c2c(C(=O)N3CCN(c4cccc(C)c4C)CC3)oc(=O)c3ccccc23)cc1	inconclusive: 11.2 µM [inhibitor, single point]	–	–
CN1CCC(NC[C@H]2Cn3c(-c4ccc(F)cc4)cnc3CO2)CC1	inconclusive: 31.6 µM [inhibitor, single point]	–	–
C=C[C@H]1CN2CC[C@H]1C[C@@H]2CNC(=O)CCCC(=O)O	–	inactive: -15.3% [at 44.1 µM]	–
COc1ccc(-c2nc(C3CC3)nc3c2CCN([S+](=O)([O-])c2cccc(OC)c2)CC3)cc1	inconclusive: 5.62 µM [inhibitor, partial curve, poor fit]	–	–
O=C(Cn1c(-c2cccs2)cc2cc(Cl)ccc21)NCc1ccccc1	inconclusive: 17.8 µM [inhibitor, single point]	–	–
COc1ccc(-c2ccnc(N[C@H]3CO[C@H]4[C@@H]3OC[C@@H]4NC(=O)NCc3ccccc3)n2)cc1	active: 5.01 µM	–	–
CCOc1ccccc1CN1C[C@@H](CO)[C@H](c2ccccn2)C1	inconclusive: 4.47 µM [inhibitor, partial curve, poor fit]	–	–
c1ccc(CN2CCC[C@H]2c2nc(-c3ccc(OC4CCCCC4)nc3)no2)nc1	inconclusive: 3.55 µM [inhibitor, partial curve, poor fit]	–	–
CC(C)CC1=NC2(CCN(C(=O)c3cccc(N(C)C)c3)CC2)C(=O)N1	–	inactive: -2.36%	–
CC(NC(=O)C1CCN(c2cc(C(F)(F)F)ncn2)CC1)c1ccc(F)cc1 (configuration not stated)	inconclusive: 7.94 µM [inhibitor, single point]	–	–
COc1ncccc1-c1nccn2c(C3CN(Cc4ccccc4O)C3)ncc12	–	inactive: -42.1% [at 44.1 µM]	–
COc1cccc(C(=O)Nc2ccc3c(c2)CN(Cc2ccccc2F)C(=O)CO3)c1	inconclusive: 0.891 µM [inhibitor, full curve, poor fit]	–	–
Cc1ccc(C2CCN(C(=O)c3cnn(-c4ccccc4Cl)c3C3CCN(C(=O)OC(C)(C)C)CC3)C2)cc1 (configuration not stated)	active: 3.98 µM	–	–
O=C1CCN(Cc2ccncc2)CCCC(C(=O)NCCc2c[nH]c3ccccc23)CCN1 (configuration not stated)	–	inactive: 5.27%	–
O=C(NCc1ccccc1)c1ccccc1OC1CN(Cc2ccc(F)cc2)C1	inconclusive: 3.55 µM [inhibitor, partial curve, poor fit]	–	–
O=C(c1ccc2c(c1)OCO2)c1cn(Cc2ccc(F)cc2)c2ccccc2c1=O	inconclusive: 8.91 µM [inhibitor, single point]	–	–
O=C(CCC1CCN(S(=O)(=O)N2CCCC2)CC1)Nc1ccccc1Cl	inconclusive: 17.8 µM [inhibitor, partial curve, poor fit]	–	–
O=C1CC2(CCN(C(=O)c3ccc4c(c3)OCO4)CC2)Oc2ccccc21	inconclusive: 17.8 µM [inhibitor, single point]	–	–
CC(=O)N1CC2(Cc3ccccc31)CN(C(=O)c1cccc(Cl)c1)C2	–	inactive: -8.91%	–
O=C(NC[C@H]1C[C@@H]2CCN1C[C@@H]2CN1CCN(c2ccc(F)cc2)CC1)c1ccco1	inconclusive: 12.6 µM [inhibitor, single point]	–	–
Cc1ccc(C(=O)Nc2cccc(C(=O)OCc3cc(=O)n4c5c(sc4n3)CCCC5)c2)cc1	–	–	inactive
Cc1ccc(-n2nc(C)c([C@H]3C=C[C@@H](OC(=O)Nc4cccc(F)c4)C3)c2C)cc1Cl	active: 11.2 µM	–	–

Structure (SMILES)	Potency	activity, negative = inhibition	outcome
O=C(c1ccc(Cl)cc1)N1CCn2c(nn(-c3ccc(F)cc3F)c2=O)C1	–	inactive: 4.51%	–
COc1ccc(-c2nc(C3CC3)nc3c2CCN(C(=O)c2ccc(C(F)(F)F)cc2)CC3)cc1	active: 5.01 µM	–	–
COc1cc(OC)c(NC(=O)c2ccc3nc(C(C)C)oc3c2)cc1Cl	–	inactive: -11.9%	–
Cc1ccc2[nH]cc(C(c3ccccc3)c3cccs3)c2c1 (configuration not stated)	inconclusive: 14.1 µM [inhibitor, single point]	–	–
Cc1ccc(-c2nccn3cc(C(=O)N4CCN(c5ccccn5)CC4)nc23)cc1	–	inactive: -25.1%	–
O=C([C@@H]1C[C@H](Oc2cccnc2)CN1S(=O)(=O)c1cccc(F)c1)N1CCCC1	–	inactive: 20%	–
CC(C)c1noc(C2CCCN(C(=O)c3ccoc3)CCC(=O)NCC2)n1 (configuration not stated)	inconclusive: 7.94 µM [inhibitor, partial curve]	–	–
Cc1noc(-c2cn(C3CCN(C(=O)c4cccc(C(F)(F)F)c4)CC3)nn2)n1	inconclusive: 12.6 µM [inhibitor, single point]	–	–
O=C(NCc1cccs1)C1=NO[C@@H]2CN(c3cccnc3)C[C@H]12	–	inactive: 31.6% [at 44.1 µM]	–
COc1ccc(-c2[nH]nc3ncc(C(=O)N(C)Cc4ccccc4)nc23)c(C)c1	inconclusive: 10 µM [inhibitor, single point]	–	–
O=C(NC1CCCCC1)c1ccc(Cn2c(SCc3cccc(F)c3)nc3cccnc32)cc1	inconclusive: 0.0282 µM [inhibitor, full curve, poor fit]	–	–
CN(C(=O)CSc1cn(CC(=O)N2CCCCCC2)c2ccccc12)c1ccccc1	inconclusive: 7.94 µM [inhibitor, single point]	–	–
CCN(c1ccc(OC)cc1)S(=O)(=O)c1c(C(=O)N2CCCCCC2)c(C)n(C)c1C	–	inactive: -14.2%	–
O=C1NCCOCCN(C(=O)COc2ccccc2)[C@H]2CCC[C@@H]12	–	inactive: 48.1%	–
CN(C)c1nccnc1OC1CCN(C(=O)C2CCOCC2)C1 (configuration not stated)	inconclusive: 15.8 µM [inhibitor, partial curve, poor fit]	–	–
CCCCNc1sc(S(=O)(=O)CC)nc1S(=O)(=O)c1ccc(C)cc1	active: 11.2 µM	–	–
O=C1CCC[C@@H]2C3CC(CN(C4CCN(C(=O)C5(c6ccccc6)CC5)CC4)C3)CN12 (some centres not stated)	inconclusive: 2.82 µM [inhibitor, partial curve, poor fit]	–	–
Cc1cccc(CC(=O)N2CCCCC2c2nc(C3CC3)n[nH]2)c1 (configuration not stated)	–	inactive: -9.05%	–
COCCCNc1ncnc2c1c(-c1ccccc1)cn2-c1ccc(C)c(Cl)c1	inconclusive: 17.8 µM [inhibitor, single point]	–	–
O=C(Nc1cc(F)cc(F)c1)N1CCCC1c1nncn1C1CCCC1 (configuration not stated)	–	inactive: -3.45%	–
CN1CCOc2c(C(=O)NCCC(N)=O)cc(-c3ccccc3F)cc21	–	inactive: -8.28% [at 44.1 µM]	–
Cc1cccc(N2CCN(C(=O)c3ccc4c(c3)N(C)C3CCCCN3C4=O)CC2)c1 (configuration not stated)	inconclusive: 6.31 µM [inhibitor, partial curve, poor fit]	–	–
O=c1n(-c2ccc(Cl)cc2)nc2n1CCN(Cc1cccnc1)C2	–	inactive: -20.6%	–

Structure (SMILES)	Potency	activity, negative = inhibition	outcome
c1ccc2c(c1)CCC(N1CCN(Cc3cc4n(n3)CCCNC4)CC1)C2 (configuration not stated)	–	–	inactive
COc1cccc(C(=O)N2CCCN(c3cc(-c4ccc(Cl)cc4)[nH]n3)CC2)c1	active: 3.98 µM	–	–
CCOc1ccc(NC(=O)Cn2c(=O)n(CCc3ccccc3)c(=O)c3c4c(sc32)CN(C(C)=O)CC4)cc1	inconclusive: 12.6 µM [inhibitor, single point]	–	–
O=C1CO[C@H]2CN(C3CCC3)C[C@H]2N1Cc1ccc(F)cc1	inconclusive: 12.6 µM [inhibitor, single point]	–	–
COC1CN(c2cccc(F)c2)C12CCN(C(=O)c1ccco1)CC2 (configuration not stated)	inconclusive: 5.62 µM [inhibitor, partial curve, poor fit]	–	–
O=C(CCc1nc(-c2ccccc2F)no1)Nc1cccc(C(F)(F)F)c1	–	inconclusive: -42.1% [inhibitor] [at 0.594 µM]	–
Cc1ccc(C)c(C(=O)N2CCC3(CC2)N=C(c2ccc(Cl)cc2)NO3)c1	inconclusive: 1.41 µM [inhibitor, full curve]	–	–
COc1ccc(-c2cc(C(=O)NCC3CC3)c3c(C4CCNC4)noc3n2)cc1 (configuration not stated)	inconclusive: 10 µM [inhibitor, partial curve, poor fit]	–	–
O=C(c1ccccn1)N1CC(Oc2ccc(-c3noc(C4CC4)n3)cc2)C1	inconclusive: 17.8 µM [inhibitor, single point]	–	–
Cc1ccc(C(=O)Nc2c(C(=O)NCc3ccc(Cl)cc3)sc3nc(C)cc(C)c23)cc1	inconclusive: 8.91 µM [inhibitor, single point]	–	–
O=C(c1ccc(Br)o1)N1CCCN(c2cc(-c3ccc(Cl)cc3)[nH]n2)CC1	–	inactive: -14%	–
COc1ccc(C2=NOC3(CCN([S+](=O)([O-])c4cccc(OC)c4)C3)C2)cc1 (configuration not stated)	inconclusive: 0.708 µM [inhibitor, partial curve]	–	–
COc1cccc(CN2Cc3nc(Nc4cccc(F)c4)ccc3OCC2=O)c1	–	inactive: -23.1% [at 44.1 µM]	–
CCOC(=O)c1cc(S(=O)(=O)N2CCN(c3ccc(OC)cc3)CC2)[nH]n1	–	inconclusive: -38.7% [inhibitor] [at 0.594 µM]	–
Cc1ccc(-n2ncc(C(=O)NCCN3CCc4ccccc4C3)c2C2CCN(C(=O)OC(C)(C)C)CC2)cc1	inconclusive: 1.26 µM [inhibitor, partial curve, poor fit]	–	–
COC(=O)[C@@H]1Cc2ncn(Cc3ccc(OC)cc3)c2CN1CCCc1ccccc1	inconclusive: 3.16 µM [inhibitor, partial curve, poor fit]	–	–
O=C(O)c1ccc2c(c1)N(S(=O)(=O)c1ccccc1F)CC2	–	inactive: 28.2%	–
Cc1nc(-c2c3n(c(=O)n(CC(=O)NCc4ccc5c(c4)OCO5)c2=O)CCCC3)no1	inconclusive: 3.98 µM [inhibitor, single point]	–	–
O=C1NCc2ccccc2CC12CCN(Cc1ccc(F)cc1F)C2 (configuration not stated)	–	inconclusive: -39.9% [inhibitor]	–
COc1ccc(CNC(=O)[C@H]2CNC[C@H](C(=O)N3CCCC3)C2)c(F)c1F	–	inactive: 21.9%	–
Cc1ccccc1NC(=O)c1sc2nc3c(cc2c1N)CCCC3	inconclusive: 12.6 µM [inhibitor, single point]	–	–
